Laboratory results published in article PMC6128262 (Analytical chemistry, 2018).
Read-outs that look alike come from different tables or passages of the source.

Assays:
[1] = biological target: T1, HpMTAN-D198N (Helicobacter pylori, UniProt Q9ZMY2, D198N); experiment: biochemical
[2] = biological target: T1, HpMTAN-D198N; conditions: for Ki: read-out: Ki value (displacement of AdoHcy-TAMRA), 11.3 nM AdoHcy-TAMRA, 50 nM HpMTAN-D198N

Compound | Ki [2] | further results
C[S+](CC[C@H](N)C(=O)[O-])C[C@H]1O[C@@H](n2cnc3c(N)ncnc32)[C@H](O)[C@@H]1O (some centres unmarked) [AdoMet, S-Adenosylmethionine] | – | Ki [1]: 0.989 ± 0.16 µM
Nc1ncnc2c1ncn2[C@@H]1O[C@H](COP(=O)(O)OP(=O)(O)OP(=O)(O)O)[C@@H](O)[C@H]1O [ATP] | – | displacement of AdoHcy-TAMRA from HpMTAN-D198N ([2]; result in words): unable to displace AdoHcy-TAMRA
5′-methylthioadenosine [MTA] | 0.0242 ± 0.0012 µM | –
Nc1ncnc2c1ncn2[C@@H]1O[C@H](COP(=O)(O)O)[C@@H](O)[C@H]1O [AMP] | 933 ± 66 µM | –
Nc1ncnc2c1ncn2[C@@H]1O[C@H](COP(=O)(O)OP(=O)(O)O)[C@@H](O)[C@H]1O [ADP] | 15.2 ± 1.3 µM | –
